Test results from PubChem BioAssay AID540317 (National Center for Advancing Translational Sciences (NCATS), 2011).
Screen size: about 390,000 compounds; about 2,200 (0.56%) were called active. Inconclusive means that the source gave no clear call. Such entries were picked first, then a sample of the others. Calls come from the whole dose curve; as a rule, active = well fitted inhibition curve with a large enough effect; inconclusive = small, poorly fitted or top-dose-only effect; inactive = no such curve, though single readings can be large or run the other way. A potency beside an inconclusive call is a rough fit, not a confirmed value.

target: Chromobox protein homolog 1 (Homo sapiens) (UniProt P83916); assay: HTS for Inhibitors of HP1-beta Chromodomain Interactions with Methylated Histone Tails; settings: AlphaScreen HP1-beta / biotin-H3K9me3 peptide binding; series mostly up to 114 µM; activity change, negative = inhibition: at the top concentration; note: nearly all actives have a fitted effect of over 70% in size
How it was run: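 Compound inhibition of the preformed complex between 50 nM HP1-beta and 50 nM biotinylated H3K9me3 peptide was read by AlphaScreen. Buffer was PBS pH 7.4 with 0.01% Tween-20. Incubations ran 30 min at room temperature, with 10 ug/mL donor/acceptor beads.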
Potency is the fitted concentration of half-maximal effect; tags give direction and shape of the fitted curve.

UniProt P83916, sequence (P83916 whole entry, looked up): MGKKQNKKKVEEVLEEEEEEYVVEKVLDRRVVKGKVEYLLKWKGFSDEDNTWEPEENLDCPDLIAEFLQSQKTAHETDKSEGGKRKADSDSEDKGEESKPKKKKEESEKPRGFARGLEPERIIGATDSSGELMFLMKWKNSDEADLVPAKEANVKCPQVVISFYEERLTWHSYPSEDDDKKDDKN

**Q.** With `O=C1C=CC(=O)c2c(O)c(N3CCN(CCO)CC3)c(Cl)c(O)c21` as the compound, how does the Potency read?
**A.** inconclusive: 15.8 µM [inhibitor, full curve, poor fit]

**Q.** Which “activity change, negative = inhibition” value does the source give for `COc1cccc(C=NCCCN=Cc2cccc(OC)c2O)c1O` here?
**A.** inactive: 16.1%

**Q.** `O=C(CCC1CCCN(C(=O)c2cncs2)C1)NCc1ccc(F)c(F)c1` (stereo not given) was tested. Which Potency did it give?
**A.** inconclusive: 14.1 µM [inhibitor, single point]

**Q.** With `C/C(=N\NC(=O)CSCc1ccccc1Cl)c1cccc(NC(=O)c2ccccc2)c1` as the compound, how does the Potency read?
**A.** inconclusive: 35.5 µM [inhibitor, single point]

**Q.** For `COc1cc(C(=O)Oc2cccc(C=O)c2)cc(OC)c1OC`, which “activity change, negative = inhibition” value is on record?
**A.** inactive: 27%

**Q.** With `Cn1cccc1/C=N/N1CCN(Cc2cccc3ccccc23)CC1` as the compound, how does the Potency read?
**A.** inconclusive: 50.1 µM [inhibitor, partial curve, poor fit]

**Q.** How did the Potency turn out when `O=C(/C=C/Nc1ccc(Br)cc1F)c1ccccc1` was run?
**A.** inconclusive: 35.5 µM [inhibitor, single point]

**Q.** Which Potency does the source give for `Fc1cccc(NC(=S)NNc2c3ccccc3nc3ccccc23)c1` here?
**A.** inconclusive: 11.2 µM [inhibitor, full curve]

**Q.** For `CCC(CC)N1CCN(C(=O)c2cc(OC)c(OC)c(OC)c2)CC1`, which Potency is on record?
**A.** inconclusive: 35.5 µM [inhibitor, partial curve]

**Q.** `COc1ccc(N2C(=O)C(Cl)=C(Nc3ccccc3OC)C2=O)cc1` was tested. Which “activity change, negative = inhibition” value did it give?
**A.** inactive: -27.7%

**Q.** Which Potency does the source give for `O=C(O)CCc1ccc(-c2cccs2)o1` here?
**A.** inconclusive: 79.4 µM [inhibitor, single point]

**Q.** Which “activity change, negative = inhibition” value does the source give for `CC(=O)N1c2ccc(S(=O)(=O)NCC3CCC(C(=O)Nc4ncccc4C)CC3)cc2CC1C` (stereo not given) here?
**A.** inactive: 1.12%

**Q.** `O=C(NCc1ccco1)C1CCN(C(=O)N2CCOc3ccccc32)CC1` was tested. Which “activity change, negative = inhibition” value did it give?
**A.** inactive: 36.2%

**Q.** Which Potency does the source give for `Cc1ccc(-n2c(N)c(C(=O)N3CCOCC3)sc2=S)c(C)c1` here?
**A.** inconclusive: 39.8 µM [inhibitor, partial curve, poor fit]

**Q.** How did the Potency turn out when `CN(c1ccc(O)cc1)c1nc(-c2cccs2)cs1` was run?
**A.** inconclusive: 50.1 µM [inhibitor, partial curve]

**Q.** `Cc1ccccc1CS(=O)(=O)CC1Nc2ccc(C(=O)NCc3ccc(Cl)cc3)cc2NC1=O` (stereo not given) was tested. Which “activity change, negative = inhibition” value did it give?
**A.** inactive: 7.19%

**Q.** `Cc1cnn(C(=S)NCc2ccco2)c1` was tested. Which Potency did it give?
**A.** inconclusive: 25.1 µM [inhibitor, partial curve]

**Q.** With `O=C(NCCCNC(=O)c1ccccn1)c1ccc(Cl)cc1` as the compound, how does the “activity change, negative = inhibition” value read?
**A.** inactive: 34.4%

**Q.** Which Potency does the source give for `CCN(CC)c1ccc2oc(=O)c(C)nc2c1` here?
**A.** inconclusive: 50.1 µM [inhibitor, partial curve]

**Q.** With `COc1ccc(-c2nc3sc(CCNC(=O)c4cc(OC)c(OC)c(OC)c4)c(C)n3n2)cc1` as the compound, how does the “activity change, negative = inhibition” value read?
**A.** inactive: 19%

**Q.** Which Potency does the source give for `CCn1c2ccccc2c2cc(NC(=O)COC(=O)c3cc(S(=O)(=O)N4CCCCC4)ccc3Cl)ccc21` here?
**A.** inconclusive: 35.5 µM [inhibitor, partial curve, poor fit]

**Q.** Which Potency does the source give for `CC(C)(C)c1nc2cc(Cl)c([N+](=O)[O-])cc2o1` here?
**A.** inconclusive: 44.7 µM [inhibitor, partial curve]

**Q.** For `CC(C)(C)NC(=O)C(=O)NNC(=O)COc1ccc(Br)cc1`, which “activity change, negative = inhibition” value is on record?
**A.** inactive: 24.1%

**Q.** With `CCCS(=O)(=O)N1CCN(Cc2ccco2)CC1` as the compound, how does the Potency read?
**A.** inconclusive: 39.8 µM [inhibitor, single point]

**Q.** Which Potency does the source give for `CCN(CC(=O)Nc1ccccc1OC)CC(=O)Nc1ccccc1-c1ccccc1` here?
**A.** inconclusive: 14.1 µM [inhibitor, full curve, poor fit]

**Q.** `Cc1c(C(=O)c2ccc(Cl)c([N+](=O)[O-])c2)c2ccccn2c1CCC#N` was tested. Which Potency did it give?
**A.** inconclusive: 50.1 µM [inhibitor, partial curve, poor fit]

**Q.** With `NC(N)=NS(=O)(=O)c1ccc(NC(=S)NC(=O)c2ccc(Br)cc2)cc1` as the compound, how does the “activity change, negative = inhibition” value read?
**A.** inactive: 12.3%

**Q.** `CC1=CCC2C(=O)N(c3ccc(C(=O)N4CCCCCC4)cc3)C(=O)C2C1` (stereo not given) was tested. Which “activity change, negative = inhibition” value did it give?
**A.** inactive: -0.511%

**Q.** How did the “activity change, negative = inhibition” value turn out when `C#CCOc1ccc(C2C3=C(CC(C)(C)CC3=O)N(CC(=O)O)C3=C2C(=O)CC(C)(C)C3)cc1OC` was run?
**A.** inactive: 25.3%

**Q.** `Cc1ccc(N2CC(C(=O)Nc3nc4ccc(S(C)(=O)=O)cc4s3)CC2=O)cc1C` (stereo not given) was tested. Which Potency did it give?
**A.** inconclusive: 50.1 µM [inhibitor, partial curve, poor fit]

**Q.** With `N#Cc1nc(-c2ccccc2Cl)oc1N1CCCCC1` as the compound, how does the Potency read?
**A.** inconclusive: 22.4 µM [inhibitor, full curve, poor fit]

**Q.** Which Potency does the source give for `CCN(CC)c1ccc(NS(=O)(=O)c2ccc(-c3cnc(C4CC4)o3)cc2)c(C)c1` here?
**A.** inconclusive: 22.4 µM [inhibitor, full curve]

**Q.** `CCOc1ccccc1N1CCN(Cc2cn[nH]c2-c2ccc(F)cc2)CC1` was tested. Which Potency did it give?
**A.** inconclusive: 79.4 µM [inhibitor, partial curve, poor fit]

**Q.** With `COC(=O)C(Cc1cnc(Cl)s1)(C(=O)OC)c1ccc(C(F)(F)F)cc1[N+](=O)[O-]` as the compound, how does the Potency read?
**A.** inconclusive: 50.1 µM [inhibitor, partial curve, poor fit]

**Q.** Which Potency does the source give for `C1=CC2CC1CC2CN1CCN(c2ccccc2)CC1` (stereo not given) here?
**A.** inconclusive: 50.1 µM [inhibitor, partial curve]

**Q.** `Cc1c(N2C(=O)CSC2c2ccco2)c(=O)n(-c2ccccc2)n1C` (stereo not given) was tested. Which “activity change, negative = inhibition” value did it give?
**A.** inactive: 7.77%

**Q.** For `CC(=O)c1ccc(N2CCN(S(=O)(=O)c3cccc4nsnc34)CC2)cc1`, which Potency is on record?
**A.** inconclusive: 25.1 µM [inhibitor, full curve, poor fit]

**Q.** For `COCCNc1nnc(SCC(=O)Nc2sc3c(c2C(=O)c2ccccc2)CCCC3)s1`, which Potency is on record?
**A.** inconclusive: 35.5 µM [inhibitor, single point]

**Q.** For `COc1cccc(C=NNc2nnc(NN=Cc3cccc(OC)c3OC)c3ccccc23)c1OC`, which Potency is on record?
**A.** inconclusive: 50.1 µM [inhibitor, single point]

**Q.** Which “activity change, negative = inhibition” value does the source give for `CCOc1cc(C(=O)Nc2ncn[nH]2)cc(OCC)c1OCC` here?
**A.** inactive: 10.4%

**Q.** How did the Potency turn out when `O=[N+]([O-])c1cc2no[n+]([O-])c2cc1N1CCCCC1` was run?
**A.** active: 14.1 µM

**Q.** `Cc1ccc(C2=NOC3(CC(=O)N(c4ccccc4)C3=O)C2)cc1` (stereo not given) was tested. Which “activity change, negative = inhibition” value did it give?
**A.** inactive: 22%

**Q.** `C=C1c2nc3ccccc3n2C=C(c2ccc(C)cc2)N1c1ccccc1` was tested. Which Potency did it give?
**A.** inconclusive: 8.91 µM [inhibitor, full curve, poor fit]

**Q.** How did the “activity change, negative = inhibition” value turn out when `Cn1cc(C(=O)N/N=C/C2=C(N3CCOCC3)C(=C\c3ccccc3)/CC2)ccc1=O` was run?
**A.** inactive: 13.7%

**Q.** `O=c1[nH]cc(S(=O)(=O)c2ccccc2)[nH]1` was tested. Which Potency did it give?
**A.** inconclusive: 39.8 µM [inhibitor, single point]
